This is an account of results in publication PMC12820563.

This is one part of the list. The list includes weakly bound sequences.

The target of the assay is T1, MBP-FoxP3dN (UniProt Q99JB6).
T1 sequence: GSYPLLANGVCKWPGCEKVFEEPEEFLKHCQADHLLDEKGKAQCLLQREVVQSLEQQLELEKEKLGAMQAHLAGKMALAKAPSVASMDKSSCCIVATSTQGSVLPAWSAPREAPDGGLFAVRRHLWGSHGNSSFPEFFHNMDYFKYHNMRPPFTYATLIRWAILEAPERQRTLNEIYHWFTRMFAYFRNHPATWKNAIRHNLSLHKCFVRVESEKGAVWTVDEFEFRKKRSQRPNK
The assay is described as follows: PD-seq (MBP pull-down with sequencing). The conditions noted are these: 20 mM Tris-HCl pH 7.5, 100 mM NaCl, 1.5 mM MgCl2, 0.4 uM protein, 0.1 uM dsDNA library, 30 min, room temperature, amylose pull-down; high values mean tight binding; double strand, one strand shown.
With “GATGATTGTTCTCCCAGCTGATGAATTTCGGCCCTCGAGTAAACAAATTTTCCTAATCTTTCTGTTCAAGCGCCATCTAC”, the binding signal (RPM ratio (pull-down/input)) worked out at 0.426.

“GATGATTGTTCTCCCAGCTGATGAATTTGGATAATCGAGTAAACAAATTTTCCTAATCTTTCTGTTCAAGCGCCATCTAC”: the binding signal (RPM ratio (pull-down/input)) amounted to 0.467.

For “GATGATTGTTCTCCCAGCTGATGAATTCTGCCAGTCGAGTAAACAAATTTTCCTAATCTTTCTGTTCAAGCGCCATCTAC”, the binding signal (RPM ratio (pull-down/input)) worked out at 2.44.

As for “GATGATTGTTCTCCCAGCTGATGAATTTACCATATCGAGTAAACAAATTTTCCTAATCTTTCTGTTCAAGCGCCATCTAC”, the binding signal (RPM ratio (pull-down/input)) worked out at 0.721.

Take “GATGATTGTTCTCCCAGCTGATGAATTCTCCCCGTCGAGTAAACAAATTTTCCTAATCTTTCTGTTCAAGCGCCATCTAC”: the binding signal (RPM ratio (pull-down/input)) was 0.178.

As for “GATGATTGTTCTCCCAGCTGATGAATTCATAAGTTCGAGTAAACAAATTTTCCTAATCTTTCTGTTCAAGCGCCATCTAC”, the binding signal (RPM ratio (pull-down/input)) came out at 0.309.

On to “GATGATTGTTCTCCCAGCTGATGAATTTAGGAGGTCGAGTAAACAAATTTTCCTAATCTTTCTGTTCAAGCGCCATCTAC”, for which the binding signal (RPM ratio (pull-down/input)) turned out to be 0.288.

As to “GATGATTGTTCTCCCAGCTGATGAATTGACCCTATCGAGTAAACAAATTTTCCTAATCTTTCTGTTCAAGCGCCATCTAC”, the binding signal (RPM ratio (pull-down/input)) came out at 0.371.

“GATGATTGTTCTCCCAGCTGATGAATTCTTGATATCGAGTAAACAAATTTTCCTAATCTTTCTGTTCAAGCGCCATCTAC”: the binding signal (RPM ratio (pull-down/input)) came out at 0.413.

Turning to “GATGATTGTTCTCCCAGCTGATGAATTTGTGGTGTCGAGTAAACAAATTTTCCTAATCTTTCTGTTCAAGCGCCATCTAC”, the binding signal (RPM ratio (pull-down/input)) is 6.2.

Take “GATGATTGTTCTCCCAGCTGATGAATTAGTCGCTTCGAGTAAACAAATTTTCCTAATCTTTCTGTTCAAGCGCCATCTAC”: the binding signal (RPM ratio (pull-down/input)) was determined as 0.902.

As to “GATGATTGTTCTCCCAGCTGATGAATTTCTCAACTCGAGTAAACAAATTTTCCTAATCTTTCTGTTCAAGCGCCATCTAC”, the binding signal (RPM ratio (pull-down/input)) turned out to be 0.271.

For “GATGATTGTTCTCCCAGCTGATGAATTGTCCTCGTCGAGTAAACAAATTTTCCTAATCTTTCTGTTCAAGCGCCATCTAC”, the binding signal (RPM ratio (pull-down/input)) amounted to 0.324.

“GATGATTGTTCTCCCAGCTGATGAATTAAGCGCTTCGAGTAAACAAATTTTCCTAATCTTTCTGTTCAAGCGCCATCTAC”: the binding signal (RPM ratio (pull-down/input)) worked out at 0.691.

Regarding “GATGATTGTTCTCCCAGCTGATGAATTTCACCTGTCGAGTAAACAAATTTTCCTAATCTTTCTGTTCAAGCGCCATCTAC”, the binding signal (RPM ratio (pull-down/input)) stood at 0.326.

As to “GATGATTGTTCTCCCAGCTGATGAATTTTCGTGGTCGAGTAAACAAATTTTCCTAATCTTTCTGTTCAAGCGCCATCTAC”, the binding signal (RPM ratio (pull-down/input)) is 0.318.

As to “GATGATTGTTCTCCCAGCTGATGAATTGCGCCCCTCGAGTAAACAAATTTTCCTAATCTTTCTGTTCAAGCGCCATCTAC”, the binding signal (RPM ratio (pull-down/input)) came out at 2.8.

Turning to “GATGATTGTTCTCCCAGCTGATGAATTGGAGGGGTCGAGTAAACAAATTTTCCTAATCTTTCTGTTCAAGCGCCATCTAC”, the binding signal (RPM ratio (pull-down/input)) came out at 0.289.

As for “GATGATTGTTCTCCCAGCTGATGAATTACTTAACTCGAGTAAACAAATTTTCCTAATCTTTCTGTTCAAGCGCCATCTAC”, the binding signal (RPM ratio (pull-down/input)) was determined as 0.277.

“GATGATTGTTCTCCCAGCTGATGAATTTCGAAACTCGAGTAAACAAATTTTCCTAATCTTTCTGTTCAAGCGCCATCTAC”: the binding signal (RPM ratio (pull-down/input)) was 0.592.

As for “GATGATTGTTCTCCCAGCTGATGAATTTCTCATTTCGAGTAAACAAATTTTCCTAATCTTTCTGTTCAAGCGCCATCTAC”, the binding signal (RPM ratio (pull-down/input)) amounted to 0.315.

For “GATGATTGTTCTCCCAGCTGATGAATTGTGACTCTCGAGTAAACAAATTTTCCTAATCTTTCTGTTCAAGCGCCATCTAC”, the binding signal (RPM ratio (pull-down/input)) was 2.61.

For “GATGATTGTTCTCCCAGCTGATGAATTCCCATCATCGAGTAAACAAATTTTCCTAATCTTTCTGTTCAAGCGCCATCTAC”, the binding signal (RPM ratio (pull-down/input)) came out at 0.449.

Regarding “GATGATTGTTCTCCCAGCTGATGAATTACCTCCATCGAGTAAACAAATTTTCCTAATCTTTCTGTTCAAGCGCCATCTAC”, the binding signal (RPM ratio (pull-down/input)) was determined as 0.326.

Regarding “GATGATTGTTCTCCCAGCTGATGAATTTTACTATTCGAGTAAACAAATTTTCCTAATCTTTCTGTTCAAGCGCCATCTAC”, the binding signal (RPM ratio (pull-down/input)) was 0.588.

Consider “GATGATTGTTCTCCCAGCTGATGAATTGCCCGATTCGAGTAAACAAATTTTCCTAATCTTTCTGTTCAAGCGCCATCTAC”, for which the binding signal (RPM ratio (pull-down/input)) came out at 0.399.

Turning to “GATGATTGTTCTCCCAGCTGATGAATTAGTTCGATCGAGTAAACAAATTTTCCTAATCTTTCTGTTCAAGCGCCATCTAC”, the binding signal (RPM ratio (pull-down/input)) was found to be 0.311.

For “GATGATTGTTCTCCCAGCTGATGAATTAGTAAGGTCGAGTAAACAAATTTTCCTAATCTTTCTGTTCAAGCGCCATCTAC”, the binding signal (RPM ratio (pull-down/input)) worked out at 0.467.

Turning to “GATGATTGTTCTCCCAGCTGATGAATTTGTAGCGTCGAGTAAACAAATTTTCCTAATCTTTCTGTTCAAGCGCCATCTAC”, the binding signal (RPM ratio (pull-down/input)) came out at 4.35.

For “GATGATTGTTCTCCCAGCTGATGAATTTTCGCCTTCGAGTAAACAAATTTTCCTAATCTTTCTGTTCAAGCGCCATCTAC”, the binding signal (RPM ratio (pull-down/input)) turned out to be 3.05.

For “GATGATTGTTCTCCCAGCTGATGAATTTAACGGATCGAGTAAACAAATTTTCCTAATCTTTCTGTTCAAGCGCCATCTAC”, the binding signal (RPM ratio (pull-down/input)) stood at 0.224.
